# Experimental data as given in PubChem BioAssay AID504333 (National Center for Advancing Translational Sciences (NCATS), 2011).
# The whole screen tested about 360,000 compounds, of which about 16,000 (4.4%) were called active. This list was built around the results that the source calls inconclusive (neither active nor inactive); the mix of calls is not that of the screen. The call rests on the fitted dose curve; in most records, active means well fitted inhibition curve with a large enough effect; inconclusive means small, poorly fitted or top-dose-only effect; inactive means no such curve, though single readings can be large or run the other way. Potencies beside an inconclusive call are fits to weak or partial responses and may not hold up.
# Target: Bromodomain adjacent to zinc finger domain protein 2B (Homo sapiens) (UniProt Q9UIF8)
# Chain of UniProt Q9UIF8 (Q9UIF8 whole entry, looked up, the tested form may be a part): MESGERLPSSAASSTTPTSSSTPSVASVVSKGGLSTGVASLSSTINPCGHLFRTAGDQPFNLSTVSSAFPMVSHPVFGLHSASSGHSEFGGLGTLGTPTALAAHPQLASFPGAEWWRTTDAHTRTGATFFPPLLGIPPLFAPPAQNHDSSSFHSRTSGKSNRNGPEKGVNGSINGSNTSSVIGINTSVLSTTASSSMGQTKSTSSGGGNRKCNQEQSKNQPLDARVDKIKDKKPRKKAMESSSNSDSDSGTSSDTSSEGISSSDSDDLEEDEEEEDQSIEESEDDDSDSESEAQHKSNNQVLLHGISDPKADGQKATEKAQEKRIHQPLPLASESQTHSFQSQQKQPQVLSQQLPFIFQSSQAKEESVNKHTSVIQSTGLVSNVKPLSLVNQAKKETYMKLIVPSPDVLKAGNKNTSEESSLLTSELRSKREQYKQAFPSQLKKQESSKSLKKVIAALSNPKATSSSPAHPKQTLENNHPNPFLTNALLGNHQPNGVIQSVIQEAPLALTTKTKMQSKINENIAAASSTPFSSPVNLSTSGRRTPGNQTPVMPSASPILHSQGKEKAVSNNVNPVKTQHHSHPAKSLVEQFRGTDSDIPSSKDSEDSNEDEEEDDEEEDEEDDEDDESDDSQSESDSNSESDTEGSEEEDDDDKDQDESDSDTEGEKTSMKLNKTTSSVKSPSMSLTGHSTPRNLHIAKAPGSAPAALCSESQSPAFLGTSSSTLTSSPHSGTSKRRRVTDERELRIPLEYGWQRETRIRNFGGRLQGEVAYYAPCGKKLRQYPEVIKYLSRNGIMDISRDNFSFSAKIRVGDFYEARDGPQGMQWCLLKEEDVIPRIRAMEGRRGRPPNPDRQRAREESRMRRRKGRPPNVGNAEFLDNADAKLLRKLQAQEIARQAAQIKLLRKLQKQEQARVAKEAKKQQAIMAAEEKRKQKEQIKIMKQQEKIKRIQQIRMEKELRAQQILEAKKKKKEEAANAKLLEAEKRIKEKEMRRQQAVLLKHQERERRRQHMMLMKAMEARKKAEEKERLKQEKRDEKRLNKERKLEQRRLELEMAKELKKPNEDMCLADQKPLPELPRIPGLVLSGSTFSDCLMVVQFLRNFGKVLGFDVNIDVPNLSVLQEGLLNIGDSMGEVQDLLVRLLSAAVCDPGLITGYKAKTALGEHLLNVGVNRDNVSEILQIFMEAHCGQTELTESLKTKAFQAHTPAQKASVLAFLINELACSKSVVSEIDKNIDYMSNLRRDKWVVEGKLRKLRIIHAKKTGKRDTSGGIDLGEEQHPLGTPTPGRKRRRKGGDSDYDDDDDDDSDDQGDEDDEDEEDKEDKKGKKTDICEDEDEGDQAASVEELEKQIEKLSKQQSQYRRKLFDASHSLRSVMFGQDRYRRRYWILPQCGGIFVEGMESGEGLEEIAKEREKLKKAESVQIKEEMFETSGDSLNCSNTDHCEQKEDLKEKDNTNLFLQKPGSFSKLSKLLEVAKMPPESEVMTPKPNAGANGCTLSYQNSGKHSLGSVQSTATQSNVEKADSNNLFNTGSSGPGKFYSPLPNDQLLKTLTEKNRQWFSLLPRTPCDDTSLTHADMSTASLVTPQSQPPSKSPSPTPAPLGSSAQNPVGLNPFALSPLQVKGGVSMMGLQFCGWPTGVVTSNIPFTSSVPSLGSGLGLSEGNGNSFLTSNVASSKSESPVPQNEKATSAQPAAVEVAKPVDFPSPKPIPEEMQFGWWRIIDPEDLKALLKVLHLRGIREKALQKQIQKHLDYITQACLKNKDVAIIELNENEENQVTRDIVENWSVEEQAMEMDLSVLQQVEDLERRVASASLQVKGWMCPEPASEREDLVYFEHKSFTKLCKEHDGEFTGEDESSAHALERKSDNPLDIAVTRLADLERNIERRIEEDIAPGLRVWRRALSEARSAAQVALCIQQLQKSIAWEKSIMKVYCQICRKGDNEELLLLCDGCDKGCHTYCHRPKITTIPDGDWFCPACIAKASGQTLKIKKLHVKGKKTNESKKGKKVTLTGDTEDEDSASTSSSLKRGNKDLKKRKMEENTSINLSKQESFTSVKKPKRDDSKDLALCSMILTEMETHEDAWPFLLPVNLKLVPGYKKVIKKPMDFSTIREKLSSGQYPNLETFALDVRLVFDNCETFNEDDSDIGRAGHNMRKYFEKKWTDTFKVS
# Experiment: qHTS Assay for Inhibitors of BAZ2B; further: nearly all actives have a fitted effect of over 60% in size
# Conditions: AlphaScreen BAZ2B-H3K14Ac peptide displacement; activity change, negative = inhibition: at 114 µM (top of the series)
# Method in brief: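 BAZ2B (50 nM) with biotin-H3(5-23)K14Ac peptide (50 nM) in PBS pH 7.4, 0.01% Tween-20, preformed 30 min, then compound 30 min at room temperature; top concentration 110uM. AlphaScreen streptavidin donor/nickel chelate acceptor beads (10 ug/mL final), 20 min dark, signal read.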
# On the % scale 0 is the no-effect control and ±100 the full control effect; potency means the concentration at half of the fitted maximal effect; tags describe the fitted curve by direction and shape.
SMILES,Potency,"activity change, negative = inhibition"
COc1cc(C2/C(=C(\O)c3ccc4c(c3)CC(C)O4)C(=O)C(=O)N2CCCn2ccnc2)cc(OC)c1OC (centres undefined),"inconclusive: 56.2 µM [inhibitor, partial curve]",–
Cc1n[nH]c(=S)n1/N=C/c1ccc(-c2ccccc2[N+](=O)[O-])o1,–,inactive: -32.1%
CC(NC(=O)c1ccc(N(C)C)c([N+](=O)[O-])c1)c1ccc(-n2ccnc2)cc1 (centres undefined),"inconclusive: 50.1 µM [inhibitor, partial curve]",–
CCC(=O)NS(=O)(=O)c1cccnc1Nc1ccc(Cl)cc1,–,inactive: -5.9%
CC(C)CCNC(=S)Nc1ccc([N+](=O)[O-])cc1,"inconclusive: 89.1 µM [inhibitor, single point]",–
Cc1cn(CC2COC(C)(C)O2)c(=O)[nH]c1=O (centres undefined),–,inactive: 3.94%
CCc1ccc(Nc2ncc3c(n2)CC(C)(C)CC3=O)cc1,–,inactive: 0.825%
CCOC(=O)c1oc2ccc(CNC3CCCCC3)c(Cl)c2c1C,"inconclusive: 89.1 µM [inhibitor, single point]",–
CNC(=O)c1cc(C(=O)c2c(Cl)cccc2Cl)c[nH]1,"inconclusive: 70.8 µM [inhibitor, single point]",–
COCCCN1C(=O)c2[nH]nc(-c3cc(C)cc(C)c3O)c2C1c1ccc(O)c(OC)c1 (centres undefined),–,inactive: -9.95%
COc1ccc(N2CCN(C(=O)CCS(=O)(=O)c3cc(Br)cc4c3N(C(=O)C3CC3)CC4)CC2)cc1,"inconclusive: 50.1 µM [inhibitor, partial curve, poor fit]",–
COc1ccc(NC(=O)Nc2nnc(N3CCCCCC3)s2)c(OC)c1,–,inactive: -27%
COC(=O)[C@@]1(Cc2ccc(F)cc2)[C@H]2c3cc(C(=O)N4CCCC4)n(CCc4ccccn4)c3C[C@H]2CN1C(=O)c1ccccc1,"inconclusive: 44.7 µM [inhibitor, partial curve]",–
O=C(CN1C(=O)C2CC=CCC2C1=O)N1CCN(c2ccc([N+](=O)[O-])cc2)CC1 (centres undefined),"inconclusive: 56.2 µM [inhibitor, partial curve]",–
CCOc1ccc(N(CC)S(=O)(=O)N2CCCC(C(=O)NCc3ccc(SC)cc3)C2)cc1 (centres undefined),"inconclusive: 79.4 µM [inhibitor, single point]",–
Cn1cnnc1SCC(=O)Nc1ccc2nc(SCc3ccccc3F)sc2c1,"inconclusive: 100 µM [inhibitor, single point]",–
CCOCCCNC(=O)c1cc(Nc2ccc(OC)cc2OC)nc2ccccc12,"inconclusive: 70.8 µM [inhibitor, single point]",–
CCN1C(=O)S/C(=C/c2c(OCc3ccc(C(=O)O)cc3)ccc3ccccc23)C1=O,"inconclusive: 50.1 µM [inhibitor, partial curve]",–
Cc1cc(C)n2nc3nc(N4CCCC4)nc(-c4ccccc4)c3c2n1,–,inactive: 18.6%
Cc1cc(C)c(NC(=O)C2CCCCN2C)c(C)c1 (centres undefined),"inconclusive: 89.1 µM [inhibitor, single point]",–
COc1ccccc1CN(Cc1nc2ccccc2c(=O)[nH]1)C(=O)Nc1cccc(C)c1,"inconclusive: 89.1 µM [inhibitor, single point]",–
Cc1cccc(NC(=O)c2ccc(NCC3CCCO3)c([N+](=O)[O-])c2)n1 (centres undefined),"inconclusive: 79.4 µM [inhibitor, single point]",–
CCOC(=O)N1CCN(S(=O)(=O)c2ccc(C(=O)N(CCCN(C)C)c3nc4cc(OC)ccc4s3)cc2)CC1,–,inactive: -11.4%

SMILES,Potency,"activity change, negative = inhibition"
COc1ccc(NC(=O)c2cc(C3CC3)nc3c2c(C)nn3-c2ccc(C)cc2)cc1OC,–,inactive: 20.2% [at 57.1 µM]
Cc1noc(NS(=O)(=O)c2ccc(NC(=O)Cc3ccc([N+](=O)[O-])cc3)cc2)c1C,"inconclusive: 89.1 µM [inhibitor, single point]",–
CCCOc1ccc(-c2nc(C#N)c(N3CCc4ccccc4C3)o2)cc1,"inconclusive: 7.94 µM [inhibitor, full curve]",–
Cc1ccc(-c2csc3nc(C)n(N)c(=O)c23)cc1,–,inactive: -3.58%
CC(=O)c1c(C)[nH]c(C(=O)COC(=O)CCSc2ccccc2)c1C,"inconclusive: 79.4 µM [inhibitor, single point]",–
Cc1ccc(OCCCC(=O)Nc2ccc(S(=O)(=O)Nc3cc(C)nc(C)n3)cc2)cc1,–,inactive: -34.4%
CCCn1c(C)cc(/C=C(\C#N)C(=O)OCC(=O)Nc2cc(OC)c(OC)c(OC)c2)c1C,"inconclusive: 50.1 µM [inhibitor, partial curve]",–
COc1ccc(NC(=O)CSc2ncn[nH]2)c([N+](=O)[O-])c1,–,inactive: 2.92%
COc1cc2nc(N(C)CCCNC(=O)C3CCCO3)nc(N)c2cc1OC (centres undefined),–,inactive: -2.93%
Cc1ccc(S(=O)(=O)N/N=C\c2ccc([N+](=O)[O-])o2)cc1,–,inactive: -4.61%
c1ccc(SCCOCCN2CCOCC2)cc1,–,inactive: -6.15%
CN1C(=O)/C(=C/c2ccc(C(F)(F)F)cc2)Sc2ccc(C(=O)N3CCN(c4ccccn4)CC3)cc21,"inconclusive: 70.8 µM [inhibitor, single point]",–
CC(C)CC(=O)Nc1nnc(SCC(=O)NCC2CCCO2)s1 (centres undefined),–,inactive: -11.2%
COc1ccc2c(c1)Cc1sc(NC(=O)c3ccccc3C)nc1-2,–,inactive: -9.19%
Cc1c(C)n(Cc2ccccc2)c2ccc(C(=O)N3CCN(c4ccccc4F)CC3)cc12,"inconclusive: 28.2 µM [inhibitor, full curve]",–
COc1ccc(CN2C(=O)CN=C2Nc2cc(C)ccc2C)cc1,"inconclusive: 89.1 µM [inhibitor, single point]",–
CCNCc1nc2cc(OC)c(OC)cc2c(=O)[nH]1,active: 50.1 µM,–
O=C(CN(C(=O)CCC(=O)Nc1nccs1)c1ccc2c(c1)OCO2)NCC1CCCO1 (centres undefined),"inconclusive: 89.1 µM [inhibitor, single point]",–
COc1cccc(OC)c1C(=O)N1CCN(Cc2ccccc2C(F)(F)F)CC1,active: 20 µM,–
CCC(=O)c1ccc(OCc2ccc(C(=O)OC)cc2)c(OC)c1,"inconclusive: 89.1 µM [inhibitor, single point]",–
CCN(CC)CCN(Cc1cc2cc3c(cc2[nH]c1=O)OCO3)C(=S)NCCCOC,"inconclusive: 89.1 µM [inhibitor, single point]",–
CSc1cccc(NC(=S)N(CCCN2CCCC2)Cc2cccn2Cc2ccc(Cl)cc2)c1,active: 25.1 µM,–
O=C(CCC1CCCN(C(=O)CCC(F)(F)F)C1)NCc1ccc(F)c(F)c1 (centres undefined),–,inactive: -24.2%

SMILES,Potency,"activity change, negative = inhibition"
O=C(Nc1ccc(C(=O)NCCCN2CCN(c3ccccc3)CC2)cc1)C1=CSCCO1,"inconclusive: 44.7 µM [inhibitor, partial curve]",–
CCc1ccc([C@@H]2CC=C(C(=O)O)[C@H](c3ccc(Cl)cc3)N2S(=O)(=O)c2ccc(C)cc2)cc1,"inconclusive: 100 µM [inhibitor, single point]",–
C/C(=N\NC(=O)Cc1ccccc1)c1ccc(Br)s1,"inconclusive: 89.1 µM [inhibitor, single point]",–
CCc1ccc(NC(=O)Nc2cn(C)c(=O)c3ccccc23)cc1,–,inactive: -10.6%
CCc1ccc(S(=O)(=O)/N=C2\C=C(NS(=O)(=O)c3ccccc3)C(=O)c3ccccc32)cc1,active: 8.91 µM,–
CCN(CCCNC(=O)CSc1cc(=O)n(CC)c2ccccc12)c1ccccc1,"inconclusive: 22.4 µM [inhibitor, full curve]",–
COC(=O)c1cccc(NC(=O)Cn2cnc3c2c(=O)n(C)c(=O)n3C)c1,"inconclusive: 79.4 µM [inhibitor, single point]",–
CCOc1ccc(CNC(=O)C2CCN(S(=O)(=O)c3ccc4c(c3)CCCC(=O)N4)CC2)cc1,"inconclusive: 79.4 µM [inhibitor, single point]",–
Cc1ccc(C)c(N2C(=O)N(Cc3ccccc3C)c3ccccc3S2(=O)=O)c1,–,inactive: -13.2%
O=C(c1cccc([N+](=O)[O-])c1)N1CCCN(C(=O)c2cccc([N+](=O)[O-])c2)CC1,–,inactive: 5.49%
O=C(Nc1ccc(N2CCN(c3ncccc3C(F)(F)F)CC2)nc1)c1cccs1,"inconclusive: 31.6 µM [inhibitor, partial curve]",–
CC#CCN1c2ccccc2[C@]23C[C@@H](C(=O)OC)N(C(=O)c4cc(C)oc4C)C2=NC(C(=O)OC)=C(C(=O)OC)[C@H]13,"inconclusive: 31.6 µM [inhibitor, partial curve]",–
COc1cc(C(=O)Nc2cccc(S(=O)(=O)NCc3ccco3)c2)cc(OC)c1OC,"inconclusive: 89.1 µM [inhibitor, single point]",–
COc1ccccc1CNC(=O)CSc1nc(-c2ccccc2)cn1N,"inconclusive: 89.1 µM [inhibitor, single point]",–
Cc1ccc(C)c(NC(=O)COC(=O)c2cccc3c2C(=O)c2ccccc2C3=O)c1,"inconclusive: 28.2 µM [inhibitor, single point]",–
CC(=O)N1CCOc2ccc(S(=O)(=O)N3CCC(C)CC3)cc21,"inconclusive: 79.4 µM [inhibitor, single point]",–
CC(/C=C1\SC(=S)N(NC(=O)c2ccncc2)C1=O)=C\c1ccccc1,"inconclusive: 44.7 µM [inhibitor, partial curve]",–
COc1ccc(CCC(=O)O)c(O)c1,"inconclusive: 89.1 µM [inhibitor, single point]",–
COC(=O)c1nnn(-c2cccc(C)c2)c1N,–,inactive: -16.5%
S=c1[nH]nc(-c2cccnc2)n1/N=C/C=C/c1ccco1,active: 44.7 µM,–
CCOC(=O)C1CN(S(C)(=O)=O)c2cc(CC(=O)OC)ccc2O1 (centres undefined),"inconclusive: 100 µM [inhibitor, single point]",–
C=CCc1cc(Cl)ccc1OCCOCCNC(C)(C)C,active: 50.1 µM,–
CC1CCC(NCCNC(=O)c2ccco2)CC1 (centres undefined),–,inactive: -36.1%
